# Laboratory results: PubChem BioAssay (NCI)
# “And” between values parts separate entries of the source, which are not always exact repeats. Equal entries are not always repeated.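 Briefly, cells in 96-well plates were exposed to five compound concentrations for 48 h, and endpoints were estimated by linear interpolation. Here, GI50 denotes the concentration required for 50% inhibition of growth. TGI is the concentration that stops growth completely.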
# Tested on: NCI-H322M lung
# Experiment: inhibition of tumour cell growth, NCI panel, 48 h
Structure (SMILES),GI50 [µM],TGI
Oc1ccc(-c2nnc3sc(-c4ccc(F)c(Oc5ccccc5)c4)nn23)cc1,49.5,> 100 µM
C[C@@H]1CN(C(=O)c2ccc(NC(=O)c3cc(O[C@H](C)c4c(Cl)ccc(F)c4Cl)c(N)nn3)cc2)C[C@H](C)N1,10.8,22.6 µM
COc1ccc2c(c1)c(=O)c1ccccc1n2/C=C/C(=O)O,,> 100 µM
CCCCCCCCCCCCCC(=O)O[C@H]1CC[C@H](NC(=O)[C@H](OC)[C@H](O)[C@@H](O)[C@H](O)/C=C/C(C)C)C(=O)NC1,,23 µM and > 100 µM
CCN1CCC(O)(c2ccc(C)cc2)C(C(=O)c2ccc(C)cc2)C1 (stereo unspecified),,> 100 µM
CN(C)c1ccc(-c2cc(=O)c3cc4c(cc3[nH]2)OCO4)cc1,,> 100 µM
Cc1ccc(S(=O)(=O)N2CCN(S(=O)(=O)c3ccc(C)cc3)Cc3ccccc3C2)cc1,,> 100 µM
COc1ccc(N(C)S(=O)(=O)c2ccccc2)cc1,,> 100 µM
COc1cc2cc(C(=O)N3CC(CCl)c4c3cc([N+](=O)[O-])c3ccccc43)[nH]c2c(OC)c1OC (stereo unspecified),,> 100 µM
COc1ccc(-c2[nH]c3ccccc3c2C=C(C#N)C#N)cc1,0.49,> 100 µM
C=C1C(=O)O[C@H]2[C@H]1CC/C(COC(=O)CCCCC(=O)OC/C1=C/CC[C@@]3(C)O[C@H]3[C@H]3OC(=O)C(=C)[C@@H]3CC1)=C\CC[C@@]1(C)O[C@@H]21,54.2,> 100 µM
COc1cc(/C=C2\[C@H]3c4c(c(OC)c(C)c(OC)c4OC)C[C@@H](C(=O)N2Cc2ccccc2)N3C(=O)OCC(C)C)c(OC)c(C)c1OC,,> 100 µM
CCN(CC)CCCC(C)Nc1cnc(C(=O)Nc2ccc(Cl)c3cccnc23)cn1 (stereo unspecified),2.42,7.91 µM
O=S1(=O)OCCOS(=O)(=O)C1I,,> 100 µM
CC(C)/C(Cl)=N\OC(=O)Nc1cccc(F)c1,,26.7 µM
COc1cc(/C=C2/C(=O)N(C(=O)OC(C)C)C(Cc3cc(OC)c(OC)c(C)c3OC)C(=O)N2Cc2ccccc2)c(OC)c(C)c1OC (stereo unspecified),,> 100 µM
Cc1cc(NC(=S)Nc2ccccc2)c(NC(=S)Nc2ccccc2)cc1C,,> 100 µM
Cc1nc2c(n1CCO)C(=O)c1ccccc1C2=O,,> 100 µM
CCCCCCC(=O)OC[n+]1ccc2c(C)c3[nH]c4ccccc4c3c(C)c2c1,,2.74 µM
CC(=O)C1C(=O)C(=O)N(c2cccc(C)c2C)C1=O (stereo unspecified),,> 100 µM
COc1ccc2c(=O)c(C)c(-c3ccccc3)oc2c1CN(C)C,,> 100 µM
O=c1[nH]nc(Cc2ccccc2)n1/N=C/c1c(O)ccc2ccccc12,,57.7 µM
CNC(=O)CN(CC(=O)NC)C(=O)NC,,> 100 µM
C[n+]1c(/C=C\c2ccc(Cl)cc2)ccc2ccccc21,37.2,> 100 µM

Structure (SMILES),GI50 [µM],TGI
CCOC(=O)c1ccc(Nc2nc3cc(C(F)(F)F)ccc3nc2-c2ccccc2)cc1,,> 100 µM
CC(=O)N1c2ccccc2C23CCN(C)CC4C(C)OCC(C4CC2=O)C13 (stereo unspecified),,> 100 µM
N#Cc1c2ccc([N+](=O)[O-])cc2c(=O)n2c1sc1ccc(C(F)(F)F)cc12,,> 100 µM
c1ccc(Cn2cc3c(c2-c2ccccc2)CCc2cnoc2-3)cc1,9.28,> 100 µM
COc1cc2nc(-c3cnc(N(C)C)nc3)nc(NC3CCN(Cc4ccccc4)CC3)c2cc1OC,1.7,3.13 µM
C=C1C(=O)O[C@@H]2[C@H]1C[C@@H](O)[C@H](C)[C@@](O)(C(=O)/C=C/C)[C@H]2OC(=O)C(C)CC (stereo partly specified),,> 93.9 µM
N#C[S-].[Nd+3].c1cnc2c(c1)ccc1cccnc12.c1cnc2c(c1)ccc1cccnc12.c1cnc2c(c1)ccc1cccnc12,,12.4 µM
CC(C)(C)NCc1cc(Nc2ccnc3cc(Cl)ccc23)cc(-c2ccc(Cl)cc2)c1O,,13.2 µM
CN(C)c1ccc(N2Cc3ccccc3OC3=C2C(=O)c2c(O)ccc(O)c2C3=O)cn1,2.03,5.16 µM
O=C(O)CNC(=O)CO/N=C1/C(c2c(O)[nH]c3ccccc23)=Nc2ccccc21,,> 100 µM
CCOP(C)(=O)C(Cc1c[nH]c2ccccc12)C(=O)O (stereo unspecified),,> 100 µM
COC1=C2CC(C)CC(OC)[C@@H](OC(=O)CCN)[C@H](C)/C=C(\C)C(OC(N)=O)C(OC)/C=C\C=C(/C)C(=O)NC(=CC1=O)C2=O (stereo partly specified),,30.2 µM
O=C(/C=C(\O)c1ccc(Cl)cc1)C(=O)N=Nc1c(O)[nH]c2ccc(Br)cc12,,> 100 µM
CC(=O)c1cccc(NC(=O)/C(=N\NC(C)(C)C)c2c(O)c3ccccc3oc2=O)c1,,> 100 µM
Cn1ccnc1C(=O)/C=C/c1ccc(C(=O)Nc2ccc(Cl)cc2)cc1,0.913,4.27 µM
COc1ccc(C(=O)C(c2ccc(OC)cc2)C2(O)C(=O)Nc3ccccc32)cc1 (stereo unspecified),,> 100 µM
CCSc1nc(N)c2c(-c3ccc(OC)c(OC)c3)c3c(nc2n1)CCCC3,,> 100 µM
COc1ccc2nc(-c3cc(-c4cc(OC)c(OC)c(OC)c4)n[nH]3)[nH]c2c1,2.47,9.05 µM
COc1ccc(CCN2C(=O)C=CC2=O)cc1OC,,33.3 µM
COc1ccccc1C1SCC(=O)N1c1ccc(-n2c(-c3ccccc3)nc3ccccc3c2=O)cc1 (stereo unspecified),,> 100 µM
CC1Cc2c(Br)nc(N)nc2NC1=O (stereo unspecified),,> 100 µM
CC1=NN(c2ccccc2)C(=O)C1N=Nc1ccc([As](=O)(O)O)c(O)c1 (stereo unspecified),,> 100 µM
CCCN(CCCCC(NC(C)=O)C(=O)NCc1ccccc1)C(=O)N(C)N=O (stereo unspecified),,> 100 µM
Cc1[nH]c2ccccc2c1C1Cc2ccccc2N1C(=O)/C=C/C=C/c1ccccc1 (stereo unspecified),,> 100 µM

Structure (SMILES),GI50 [µM],TGI
COc1cc(OC)cc(Oc2nc3ccccc3nc2C(=O)O)c1,,> 100 µM
COc1cc(C(=O)c2ccc3c(c2)OCO3)cc(OC)c1OC,4.44,> 100 µM
OC(c1nc2ccccc2s1)(C(F)(F)F)C(F)(F)F,,> 100 µM
O=c1[nH]c(Nc2ccc(F)c(Cl)c2)nc2nc[nH]c12,,> 100 µM
C[C@H]1O[C@@H](c2c(O)ccc3ccccc23)C[C@@H](N(C)C)C1O (stereo partly specified),,> 100 µM
O=C(O)CN1CCNCCN(CP(=O)(O)O)CC1,,> 100 µM
Oc1ccccc1-c1nn(CNc2cccc(Cl)c2)c(=S)o1,5.49,> 100 µM
COc1ccc2c(c1)c(-c1ccc(-c3cn(S(=O)(=O)c4ccccc4)c4ccc(OC)cc34)s1)cn2S(=O)(=O)c1ccccc1,> 100,> 100 µM
COc1ccc(CN2C[C@H]3[C@@H](CC(=O)O[C@H]3C)CC2=O)cc1,,> 100 µM
COC(=O)C1=C2CCC(=O)[C@@]2(C)C(OC(C)=O)C=CC1 (stereo partly specified),,> 100 µM
C/C(=N\NS(=O)(=O)c1ccc(C)cc1)C(CN1CCOCC1)C(c1ccccc1)c1c(O)c2ccccc2oc1=O (stereo unspecified),,> 100 µM
O=c1cc(-c2cccc(C(F)(F)F)c2)[nH]c2cc3c(cc12)OCO3,0.689,50 µM and > 100 µM
Cn1cc(-c2nc(-c3c[nH]c4ncccc34)cs2)c2cc(F)ccc21,1.75,12.9 µM
O=S1c2ccccc2N=C(c2ccc3ccccc3c2)CC1C1=CC=CCC1 (stereo unspecified),,69.7 µM
CC(C)CNC(=O)CCc1cccc2c1oc1c(CCN)cccc12,,32.7 µM
C/C(=C\C(C)COCc1ccccc1)[C@H](COCc1ccccc1)OCc1ccccc1 (stereo partly specified),,> 100 µM
O=C1CCCCC1CN1CCCC1 (stereo unspecified),,> 100 µM
CC[C@@H](C(=O)[C@@H](C)[C@@H](O)[C@H](C)[C@@H]1O[C@@H]([C@@H](CC)C(=O)O)CC[C@@H]1C)C1O[C@]2(C=CC(=O)[C@]3(CC[C@@](C)([C@H]4CC[C@](O)(CC)[C@H](C)O4)O3)O2)[C@H](C)C[C@@H]1C (stereo partly specified),4.11,19.8 µM
O=c1/c(=C/c2cccc([N+](=O)[O-])c2)sc2nc3ccccc3n12,,> 100 µM
C#CCOC(=O)c1ccccc1O,,> 100 µM
COc1ccc2c(c1)C(=O)/C(=C/c1cccc(OCC(=O)Nc3nc4c(s3)CCCC4)c1)O2,13.2,26.5 µM
O=C1C=CC2(O[C@H](c3ccccc3)[C@@H](c3ccccc3)O2)C(SC(=O)c2ccccc2)C1 (stereo partly specified),,26.8 µM
C=CC(Cl)(CBr)CCC(Br)=C(C)C (stereo unspecified),,> 100 µM
COc1ccccc1OCC(=O)Nc1sc2c(c1C(N)=O)CCC2,> 100,> 100 µM

Structure (SMILES),GI50 [µM],TGI
CC1=C[C@H]2c3c(c(O)c(O)c4oc5c(C)cccc5c(=O)c34)[C@H](c3cc(O)c(O)c4oc5c(C)cccc5c(=O)c34)[C@H]2C(C)(C)C1,2.04,11.6 µM
Cc1cc2c(cc1Cl)SC1=CC(=O)N(c3ccccc3)C1=NS2(=O)=O,> 100,> 100 µM
COc1cc(C2c3cc4c(cc3OC(NC3CCCCC3)C2C)OCO4)cc(OC)c1OC (stereo unspecified),,> 100 µM
COc1cc(/C=C2\C[C@H]3[C@@H]4CC=C5C[C@@H](O)CC[C@]5(C)[C@H]4CC[C@]3(C)[C@H]2O)cc(OC)c1OC,,> 100 µM
CC1=C(C)C(=O)O[C@@H]([C@](C)(O)[C@]2(O)CC[C@@]3(O)[C@@H]4C[C@H]5O[C@]56[C@@H](O)C=CC(=O)[C@]6(C)[C@H]4CC[C@]23C)C1,,4.94 µM
COc1cc2c(cc1OCCCOc1cc(-c3ccc(F)cc3)nc(C)n1)N=C[C@@H]1CCCN1C2=O,,61.6 µM
CCCCON1C[C@@H](O)C(O)[C@@H](O)C1 (stereo partly specified),,> 100 µM
CN(C)CCNC(=O)c1cc2ccccc2c2nc3ccccc3nc12,,3.04 µM
O=C1/C(=C\c2ccc(Cl)cc2Cl)Sc2scc(-c3cccc([N+](=O)[O-])c3)[n+]21,,35.2 µM
CCc1n[nH]c(=S)n1/N=C\c1ccc(-c2ccccc2Cl)o1,,> 100 µM
CC(C)(C)NC(C1=CC(C)(C)c2ccccc2C1=O)c1ccccc1 (stereo unspecified),2.42,7.47 µM
Cc1c(Cl)ccc2c1NC(=O)C2(O)C(C(=O)c1ccccc1)c1ccccc1 (stereo unspecified),,> 100 µM
Cc1nc(Cl)nc(Cl)c1C,,> 100 µM
O=C(CN1CCN(c2ncnc3ccccc23)CC1)Nc1ccc(Cl)cc1C(=O)c1ccccc1Cl,0.528,8.49 µM
CCOC(=O)/C(=C\c1ccc(O)c(OC)c1)C(=O)c1ccccc1,,> 54.4 µM
O=C1/C(=C/C=C/c2ccccc2)N=C(c2ccccc2)N1C1Nc2cc3c(cc2S1)NC(N1C(=O)/C(=C/C=C/c2ccccc2)N=C1c1ccccc1)S3 (stereo unspecified),,> 100 µM
S=C1SC(=Nc2ccccc2)C(=Nc2ccccc2)N1c1ccccc1,,> 100 µM
CC1C(=O)OC2CC[N+]3(CC(=O)c4ccc(Br)cc4)CC=C(COC(=O)C(C)(O)C1(C)O)C23 (stereo unspecified),,> 375 µM
OC12c3ccccc3C1(N1CCOCC1)CCCCC21OCCCO1 (stereo unspecified),,> 100 µM
CC1=NN(C(=O)CC(=O)Nc2ccccc2C)C(=O)C1N=Nc1ccc(C(=O)O)cc1 (stereo unspecified),,> 100 µM
O=C(O)C(CP(=O)(O)O)=C(Cl)Cl,,> 100 µM
